Assay results from paper PMC4336329 (PLoS ONE, 2015).
Among all 310,000 compounds or so, about 14,000 (4.5%) showed an effect of 50% or more. The effect is printed as a negative number. This is one part of the list.

biological target: human ether-à-go-go-related gene (hERG) potassium channel (human, UniProt Q12809); test: primary screen, population patch clamp on CHO cells stably expressing hERG
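Note: peak tail current of the secondary pulse compared with the same well before compound.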

Sequence of human ether-à-go-go-related gene (hERG) potassium channel (Q12809 whole entry, looked up): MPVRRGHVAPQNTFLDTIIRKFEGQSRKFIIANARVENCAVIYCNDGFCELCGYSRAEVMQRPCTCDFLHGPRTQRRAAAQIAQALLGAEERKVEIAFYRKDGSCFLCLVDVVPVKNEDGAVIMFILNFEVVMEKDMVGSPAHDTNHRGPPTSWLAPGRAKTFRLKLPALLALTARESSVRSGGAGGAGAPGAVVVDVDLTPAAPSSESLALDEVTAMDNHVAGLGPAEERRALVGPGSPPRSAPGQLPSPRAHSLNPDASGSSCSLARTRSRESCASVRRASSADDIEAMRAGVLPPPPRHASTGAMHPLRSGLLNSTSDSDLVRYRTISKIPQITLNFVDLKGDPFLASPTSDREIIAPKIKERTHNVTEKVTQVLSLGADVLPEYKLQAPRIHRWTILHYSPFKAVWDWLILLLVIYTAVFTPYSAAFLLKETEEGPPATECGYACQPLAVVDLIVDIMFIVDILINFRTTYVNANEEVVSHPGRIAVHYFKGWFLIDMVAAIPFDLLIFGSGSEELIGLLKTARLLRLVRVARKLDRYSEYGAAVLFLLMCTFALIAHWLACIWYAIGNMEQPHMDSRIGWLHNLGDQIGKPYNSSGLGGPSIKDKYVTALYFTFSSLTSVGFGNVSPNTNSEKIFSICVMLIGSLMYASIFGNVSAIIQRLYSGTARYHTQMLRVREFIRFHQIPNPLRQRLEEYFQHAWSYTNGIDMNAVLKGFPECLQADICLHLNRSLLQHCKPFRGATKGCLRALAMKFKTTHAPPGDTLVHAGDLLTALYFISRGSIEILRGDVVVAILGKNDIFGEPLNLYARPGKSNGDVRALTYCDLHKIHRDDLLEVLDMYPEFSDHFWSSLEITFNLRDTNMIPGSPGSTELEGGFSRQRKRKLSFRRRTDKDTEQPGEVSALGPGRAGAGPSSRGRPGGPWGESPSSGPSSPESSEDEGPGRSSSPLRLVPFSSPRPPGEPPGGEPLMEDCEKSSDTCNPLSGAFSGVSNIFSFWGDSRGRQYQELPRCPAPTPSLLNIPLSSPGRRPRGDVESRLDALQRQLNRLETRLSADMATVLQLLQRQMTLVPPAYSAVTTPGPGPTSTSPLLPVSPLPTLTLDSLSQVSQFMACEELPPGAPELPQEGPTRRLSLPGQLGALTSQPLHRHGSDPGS

Compound	hERG current change (%, negative = inhibition) at 10uM
O=C(COc1ccc(/C=N/NC(=O)c2ccc(O)cc2)cc1)Nc1cccc([N+](=O)[O-])c1	43.4%
CCOc1ccc(NC(=O)Nc2ccccc2SC)cc1	16.3%
CCOC(=O)n1c(=O)oc2cc(S(=O)(=O)N3CCCCC3)ccc21	-13.4%
Cc1cccc(OCCSc2nc3ncnc(N)c3[nH]2)c1	13.8%
Cc1ccc(C(C(=O)NCc2ccco2)N(CC2CCCO2)C(=O)Cn2nnc3ccccc32)cc1 (stereo not drawn)	5.62%
COc1ccc2nc(NC(=O)C3=NN(c4ccccc4)C(=O)CC3)sc2c1	4.41%
O=C(Cn1ccc([N+](=O)[O-])n1)Nc1ccccn1	36.7%
CN1C(=O)/C(=C/c2ccccc2OCc2ccccc2)NC1=S	11.5%
Cc1cc(C(=O)CN2C(=O)NC(C)(CC(C)C)C2=O)c(C)n1-c1ccc2c(c1)OCO2 (stereo not drawn)	-23.5%
Cc1ccccc1CC1(CO)CCCN(Cc2nc(-c3cccs3)oc2C)C1 (stereo not drawn)	-61.1%
Cc1cc(C)c(OCC(=O)N(Cc2cccs2)C2CCS(=O)(=O)C2)c(C)c1 (stereo not drawn)	-37.6%
CC(C)(C)c1cc(-c2csc(Nc3ccccc3)[n+]2Cc2ccc(C(=O)O)cc2)cc(C(C)(C)C)c1O.[Br-]	5.72%
C/C(=N/Nc1ncc(Br)cn1)c1ccc([N+](=O)[O-])cc1	-41.8%
O=C(COc1cc(F)ccc1[N+](=O)[O-])Nc1ccc(N2CCCCC2)cc1	-11%
CCOc1ccc(S(=O)(=O)NCC2CCCO2)cc1 (stereo not drawn)	-2.45%
CN1C(=O)/C(=C\c2ccco2)N=C1c1ccc(Cl)cc1Cl	-8.63%
O=c1c2c(nc3cc(-c4cccc(F)c4)[nH]n13)CCC2	1.59%
O=C(Nc1ccnn1C1CCN(C2CCCCC2)CC1)c1ccccc1	-25.8%
COc1cc(Cl)c(S(=O)(=O)N2CCOCC2)cc1Cl	-7.29%
O=C(O)c1cnc(-c2ccccc2)nc1Sc1ccc(Cl)cc1Cl	7.31%
O=C(Cc1cccs1)N(CC1CCCO1)C1(C(=O)NC2CCCCC2)CCCCC1 (stereo not drawn)	7.23%
CCOP(=O)(OCC)C(NC(=O)NS(=O)(=O)c1ccc(C)cc1)c1ccccc1 (stereo not drawn)	14.3%
COC(=O)C1=C(C)NC(=O)CC1c1cc(Br)ccc1F (stereo not drawn)	15.9%
CCOc1cc(/C=N/NC(=O)C2CCCC2)ccc1OC(C)C	17.5%
